Data: the supplement of paper PMC12578646, “Prodrug florfenicol amine is activated by intrinsic resistance to target Mycobacterium abscessus” (Nature Microbiology, 2025)
M. abscessus ATCC 19977 and its deletion, point and complemented mutants after 5 days of drug at 37 °C plus 24 h of resazurin. Growth in % of untreated wells at the dose given (lower = more inhibition); checkerboards give % inhibition (higher = more inhibition); IC50 from the fitted curve (lower = more potent). No active / inactive call. IC50 values come from the same 384-well curves. Growth is not capped and can exceed 100%. The direction of the checkerboard scale is read from the raw signals. Capreomycin is a mixture.

Experiments:
Experiment in all cases: growth relative to untreated wells; higher = more growth (less inhibition)
[1] = system: Mycobacterium abscessus ATCC 19977 Eis2 E120fs
Protocol: (§1)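 384-well two-fold dose series, two replicates; 5 days at 37 °C, then 24 h with resazurin; fluorescence scaled to growth and killed controls.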

[2] = system: Mycobacterium abscessus ATCC 19977 Eis2 T258R
Protocol: as §1

[3] = system: Mycobacterium abscessus ATCC 19977 Eis2 Y227D
Protocol: as §1

[4] = system: Mycobacterium abscessus ATCC 19977 Eis2 Y255*
Protocol: as §1

[5] = system: Mycobacterium abscessus ATCC 19977 Eis2 Y284*
Protocol: as §1

[6] = system: Mycobacterium abscessus ATCC 19977 WhiB7 A51T
Protocol: as §1

[7] = system: Mycobacterium abscessus ATCC 19977 WhiB7 F24fs
Protocol: as §1

[8] = system: Mycobacterium abscessus ATCC 19977 WhiB7 L37P
Protocol: as §1

[9] = system: Mycobacterium abscessus ATCC 19977 WhiB7 T70fs
Protocol: as §1

[10] = system: Mycobacterium abscessus ATCC 19977 Δeis2
Protocol: as §1

[11] = system: Mycobacterium abscessus ATCC 19977 ΔwhiB7
Protocol: as §1

[12] = system: Mycobacterium abscessus ATCC 19977
Protocol: as §1

CNC1CC(N)C(O)C(OC2OC(CO)C(O)C3OC4(OC(C(N)CO)C(O)C(O)C4O)OC23)C1O (centres undefined) [hygromycin B]
Conditions | growth [%]
[1], 0.5 µg/mL | 111
[1], 1 µg/mL | 115
[1], 2 µg/mL | 118
[1], 4 µg/mL | 126.52
[1], 8 µg/mL | 135
[1], 16 µg/mL | 27.8
[1], 32 µg/mL | 1.78
[1], 64 µg/mL | 1.21
[1], 128 µg/mL | -1.18
[1], 256 µg/mL | 0.0283
[1], 512 µg/mL | -0.843
[1], 1024 µg/mL | 0.809
[2], 0.5 µg/mL | 107.5
[2], 1 µg/mL | 116
[2], 2 µg/mL | 106.31
[2], 4 µg/mL | 113
[2], 8 µg/mL | 129
[2], 16 µg/mL | 11.2
[2], 32 µg/mL | -0.755
[2], 64 µg/mL | -1.78
[2], 128 µg/mL | 0.817
[2], 256 µg/mL | -1.65
[2], 512 µg/mL | -1.38
[2], 1024 µg/mL | -0.853
[3], 0.5 µg/mL | 113
[3], 1 µg/mL | 113
[3], 2 µg/mL | 108
[3], 4 µg/mL | 120
[3], 8 µg/mL | 135.35
[3], 16 µg/mL | 20.7
[3], 32 µg/mL | 1.31
[3], 64 µg/mL | 0.0666
[3], 128 µg/mL | -0.296
[3], 256 µg/mL | 0.513
[3], 512 µg/mL | 0.899
[3], 1024 µg/mL | 2.05
[4], 0.5 µg/mL | 119
[4], 1 µg/mL | 121
[4], 2 µg/mL | 115.5
[4], 4 µg/mL | 121
[4], 8 µg/mL | 130
[4], 16 µg/mL | 18.9
[4], 32 µg/mL | -1.62
[4], 64 µg/mL | -3.1
[4], 128 µg/mL | -2.94
[4], 256 µg/mL | -2.49
[4], 512 µg/mL | 0.338
[4], 1024 µg/mL | -1.03
[5], 0.5 µg/mL | 110
[5], 1 µg/mL | 110.7
[5], 2 µg/mL | 115
[5], 4 µg/mL | 119
[5], 8 µg/mL | 124
[5], 16 µg/mL | 18.2
[5], 32 µg/mL | 0.473
[5], 64 µg/mL | -1.86
[5], 128 µg/mL | -1.77
[5], 256 µg/mL | -1.15
[5], 512 µg/mL | -0.565
[5], 1024 µg/mL | -0.0914
[6], 0.5 µg/mL | 115
[6], 1 µg/mL | 115
[6], 2 µg/mL | 114
[6], 4 µg/mL | 120
[6], 8 µg/mL | 136
[6], 16 µg/mL | 0.526
[6], 32 µg/mL | -1.21
[6], 64 µg/mL | 18.5
[6], 128 µg/mL | 3.74
[6], 256 µg/mL | -1.01
[6], 512 µg/mL | -0.794
[6], 1024 µg/mL | 0.542
[7], 0.5 µg/mL | 107
[7], 1 µg/mL | 117.1
[7], 2 µg/mL | 112
[7], 4 µg/mL | 110.7
[7], 8 µg/mL | 51.9
[7], 16 µg/mL | -0.289
[7], 32 µg/mL | -0.807
[7], 64 µg/mL | -1.12
[7], 128 µg/mL | -0.973
[7], 256 µg/mL | -1.06
[7], 512 µg/mL | -0.468
[7], 1024 µg/mL | 0.591
[8], 0.5 µg/mL | 111
[8], 1 µg/mL | 120
[8], 2 µg/mL | 118
[8], 4 µg/mL | 125.5
[8], 8 µg/mL | 48.2
[8], 16 µg/mL | -0.664
[8], 32 µg/mL | -0.825
[8], 64 µg/mL | -1.52
[8], 128 µg/mL | -1.91
[8], 256 µg/mL | -0.602
[8], 512 µg/mL | -1
[8], 1024 µg/mL | 1.02
[9], 0.5 µg/mL | 101
[9], 1 µg/mL | 110
[9], 2 µg/mL | 111
[9], 4 µg/mL | 114.1
[9], 8 µg/mL | 53.2
[9], 16 µg/mL | -3.57
[9], 32 µg/mL | -3.56
[9], 64 µg/mL | -3.95
[9], 128 µg/mL | -3.72
[9], 256 µg/mL | -3.06
[9], 512 µg/mL | -2.71
[9], 1024 µg/mL | -1.51
[10], 0.5 µg/mL | 105
[10], 1 µg/mL | 106
[10], 2 µg/mL | 105
[10], 4 µg/mL | 118.7
[10], 8 µg/mL | 130
[10], 16 µg/mL | 8.001
[10], 32 µg/mL | -0.7129
[10], 64 µg/mL | -2.14
[10], 128 µg/mL | -2.6
[10], 256 µg/mL | -1.85
[10], 512 µg/mL | -1.18
[10], 1024 µg/mL | -0.106
[11], 0.5 µg/mL | 112
[11], 1 µg/mL | 113
[11], 2 µg/mL | 112
[11], 4 µg/mL | 148
[11], 8 µg/mL | 9.1
[11], 16 µg/mL | -2.4
[11], 32 µg/mL | -2.93
[11], 64 µg/mL | -3.54
[11], 128 µg/mL | -3.95
[11], 256 µg/mL | -2.8
[11], 512 µg/mL | -2.94
[11], 1024 µg/mL | -1.98
[12], 0.5 µg/mL | 110
[12], 1 µg/mL | 114
[12], 2 µg/mL | 112.6
[12], 4 µg/mL | 116.1
[12], 8 µg/mL | 112.6
[12], 16 µg/mL | 117
[12], 32 µg/mL | 122
[12], 64 µg/mL | 131
[12], 128 µg/mL | 40.8
[12], 256 µg/mL | 4.38
[12], 512 µg/mL | 0.201
[12], 1024 µg/mL | 0.803
